This is an account of results in ChEMBL document CHEMBL4888484, “Replenishing the malaria drug discovery pipeline: Screening and hit evaluation of the MMV Hit Generation Library 1 (HGL1) against asexual blood stage Plasmodium falciparum ,using a nano luciferase reporter read-out” (2022).

The % Inhibition is the change of the read-out against control, counted positive when it falls.

Structures are written as SMILES. About 540 (0.36%) of roughly 150,000 compounds showed an effect of 50% or more. The list shows a part of the results.

This experiment concerns Plasmodium falciparum. As to the kind of experiment: Primary screen in NF54 nanoGlo assay, in single point, at 2uM, 72h; a lower Z score goes with more inhibition. Format: functional, Erythrocyte. Conditions: timepoint 72 hour.
Turning to `Cc1nn(C)c(C)c1NC(=O)CNc1ccccc1N1CCCCC1`, the “% Inhibition” value was found to be 32% and the Z score was -3.58.

For `CN(C(=O)Cn1ccnn1)c1ccccc1Oc1ccccc1`, the “% Inhibition” value is listed as 7% and the Z score is reported as -1.31.

Regarding `CC(=O)c1ccc(S(=O)(=O)N2CCN(CC(=O)Nc3c(C)n(C)n(-c4ccccc4)c3=O)CC2)cc1`, the “% Inhibition” value was -1% and the Z score came to 0.08.

Take `Cc1ccc(S(=O)(=O)N2CCOCCN(S(=O)(=O)c3ccc(C)cc3)CCOCC2)cc1`: the “% Inhibition” value is given as -14% and the Z score is 1.91.

Regarding `CCC(=O)N(Cc1c(-c2ccccc2)noc1N1CCCC1)CC(C)C`, the “% Inhibition” value is 0% and the Z score is listed as 0.01.

In the case of `NC(=NCc1cccc(O)c1)NCCc1ccccn1`, the “% Inhibition” value is recorded as -6% and the Z score turned out to be 0.86.

As for `CCCn1cc(C(=O)N2C[C@H](c3ccc(C)cc3)[C@@H](N(C)C)C2)c(C)n1`, the “% Inhibition” value is listed as 13% and the Z score was -1.61.

As to `C[C@@H](C(=O)NC1(C#N)CCCCC1)N1CCC(c2ccsc2)CC1`, the “% Inhibition” value is recorded as 2% and the Z score was -0.49.

Turning to `C[C@@H](NC(=O)c1cc(C(=O)OC(C)(C)C)[nH]n1)c1cc(Cl)ccc1OC(F)F`, the “% Inhibition” value is listed as -14% and the Z score is reported as 2.62.

`C[C@@H](CCc1ccccc1)NC(=O)c1cc2n(n1)CCCO2`: the “% Inhibition” value is reported as -19% and the Z score is 3.02.

Take `c1cc2c(cc1CNc1nnc([C@@H]3CCCO3)o1)CCO2`: the “% Inhibition” value is recorded as -9% and the Z score came to 1.71.

`Cc1ccc(NC(=O)c2cccc(OC(=S)NCc3ccccc3)c2)cc1`: the “% Inhibition” value is -6% and the Z score was found to be 1.

Regarding `O=C(c1csc(-c2ncccc2F)n1)N1CCOC[C@@H]1CC1CC1`, the “% Inhibition” value is listed as -15% and the Z score came to 1.7.

With `c1cc(-c2nc3c(c(N4CCC[C@H](c5ncc[nH]5)C4)n2)CCC3)ccn1`, the “% Inhibition” value is 4% and the Z score is -0.36.

For the compound `Oc1ccc(Cl)cc1[C@@H](C#Cc1ccccc1)N1CCOCC1`, the “% Inhibition” value is listed as -2% and the Z score is given as 0.27.

Consider `Cc1nccn1CC(=O)N[C@@H](C)C1=CCCCC1`, for which the “% Inhibition” value stood at 3% and the Z score is reported as -0.38.

As to `Cc1cccc(CN(CCN2CCCCC2)C[C@H]2CCCN(C3CCCC3)C2)n1`, the “% Inhibition” value came out at 9% and the Z score is listed as -1.89.

Take `Cc1cc(C(=O)N2CCC[C@H](CN3CCOCC3)C2)nc(N)n1`: the “% Inhibition” value was -7% and the Z score is 0.82.

For the compound `CN(C)c1noc(CN2CCCC2=O)n1`, the “% Inhibition” value stood at 5% and the Z score was -0.84.

In the case of `CC(=O)[C@H](C)n1nc(C2CC2)ccc1=O`, the “% Inhibition” value is -17% and the Z score amounted to 2.21.

On to `Cc1ncc2c(c1-c1noc(CCn3c(C)nc4ccccc43)n1)CCNC2`, for which the “% Inhibition” value is -5% and the Z score is reported as 0.63.

Regarding `CC(C)CCC(CCN1CCCC1)C1CCOC(C)(C)C1` (centres undefined), the “% Inhibition” value is recorded as 2% and the Z score was -0.42.

In the case of `O=C(Nc1ccc(Cl)cc1)[C@@H]1CCCN1`, the “% Inhibition” value is listed as -14% and the Z score is on record as 1.88.

`COc1cc(CC(=O)NC2CC(C)(OC)C2(C)C)cc(OC)c1O` (centres undefined): the “% Inhibition” value was -12% and the Z score came to 1.34.

As to `c1ccc(-c2nccc(-c3ccc(-n4cncn4)cc3)n2)nc1`, the “% Inhibition” value came out at 49% and the Z score is reported as -2.29.

As for `CC(C)(C)N1CC[C@H](NC(=O)NCc2ncn(Cc3cccc(F)c3)n2)C1`, the “% Inhibition” value came out at 1% and the Z score is on record as -0.2.

Turning to `CCN(C[C@H]1COc2ccccc2O1)C(=O)c1cnc(C)cn1`, the “% Inhibition” value is reported as -17% and the Z score is on record as 1.41.

In the case of `COCc1noc(CCNc2nc(C)nc3oc(C)nc23)n1`, the “% Inhibition” value is listed as 1% and the Z score was -0.25.

`COc1ccc(-c2noc(-c3cccn3CC(=O)Nc3ccc4c(c3)CCC4)n2)cc1F`: the “% Inhibition” value was -4% and the Z score is reported as 0.51.

Consider `Cc1nn(-c2nc3ccccc3[nH]2)c(O)c1Cc1ccccc1`, for which the “% Inhibition” value was determined as 63% and the Z score is on record as -1.65.

With `c1cc(-c2nc(CN3CCC4(C3)OCCO4)no2)cs1`, the “% Inhibition” value is recorded as -14% and the Z score was 2.62.

Turning to `COCc1nc2n(n1)CC(NC1CCC(C)C(C)C1)CC2` (centres undefined), the “% Inhibition” value came out at 1% and the Z score is on record as -0.12.

`Cc1cccc2c1NC(=O)[C@]21[C@@H](C(=O)c2ccc(OC(C)C)cc2)[C@]2(C(=O)Nc3ccccc32)[C@@H]2CCCN21`: the “% Inhibition” value is -25% and the Z score is 2.22.

`Cc1ccc(Cc2ccccc2C(=O)N2C[C@@H](C)[C@@](C)(O)C2)cc1`: the “% Inhibition” value is -6% and the Z score is 1.11.

`Cc1cc(C)n(-c2c(-c3ccccc3)c(=O)n3c4c(cccc24)CCC3)n1`: the “% Inhibition” value is -13% and the Z score stood at 1.67.

As to `Clc1cc(CNCCc2ccccc2)ccc1OCc1ccccc1`, the “% Inhibition” value was 39% and the Z score is -4.47.

`CCCOc1cc(S(N)(=O)=O)ccc1Br`: the “% Inhibition” value is given as 3% and the Z score is -0.33.

As for `Cc1cccc(Cn2c(C(=O)NCc3ccccc3)cc3cc(NC(=O)c4ccc(C)c(C)c4)ccc32)c1`, the “% Inhibition” value is given as 13% and the Z score is -1.79.

`Cn1cccc1[C@@H]1CCCN1Cc1cccc2cccnc12`: the “% Inhibition” value is on record as -15% and the Z score amounted to 1.34.

As to `CN(Cc1cccnc1)C[C@H]1CCCN(c2nccc3ccsc23)C1`, the “% Inhibition” value is listed as -2% and the Z score is given as 0.32.

`CC(C)CC[C@H]1CCCCN1c1nnc(-c2ccon2)s1`: the “% Inhibition” value is given as -6% and the Z score was determined as 1.23.

`O=C(Cn1cnc2ccccc2c1=O)NCCNC1=NS(=O)(=O)c2ccccc21`: the “% Inhibition” value is -10% and the Z score is listed as 1.22.
